# Test results taken from the supplement of paper PMC3334620.
# The full ranking holds about 33,000 sequences; the median of “E-score (-0.5 to 0.5)” is about -0.017, and the highest 2% start at about 0.3. The list shows a part of the results.
# Target: T1, Sut1 (UniProt P53032)
# T1 sequence: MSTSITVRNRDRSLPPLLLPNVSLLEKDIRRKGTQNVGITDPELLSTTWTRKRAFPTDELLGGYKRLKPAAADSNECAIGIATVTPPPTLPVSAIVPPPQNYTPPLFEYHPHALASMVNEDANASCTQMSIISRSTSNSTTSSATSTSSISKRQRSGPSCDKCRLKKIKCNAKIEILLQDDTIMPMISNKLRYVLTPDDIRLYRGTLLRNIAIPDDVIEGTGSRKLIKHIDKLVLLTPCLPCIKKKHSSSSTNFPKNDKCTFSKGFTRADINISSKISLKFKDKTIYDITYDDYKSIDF
# Test: PBM E-score (8-mer binding enrichment) (E-score (-0.5 to 0.5)); higher = stronger / more preferred TF binding; most listed sequences are background and not binding sites
# Conditions: protein concentration: 200 nM; construct: GST-full length
# Experimental: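 Universal 'all 10-mer' protein binding microarrays (Agilent AMADID 015681) probed with GST-tagged S. cerevisiae TFs (full-length or DBD) made by in vitro transcription/translation (PURExpress), about 100-200 nM. Bound TF was detected with fluorescent anti-GST. Each ungapped 8-mer (which stands for itself and its reverse complement) is scored by the PBM enrichment score (E-score), a modified Wilcoxon-Mann-Whitney statistic from -0.5 to +0.5, computed with the Universal PBM Analysis Suite. Scale: above 0.35 generally sequence-specific binding.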
row,Sequence,PBM E-score
1,ATCGTTTA,0.124
2,ATGCGCCC,-0.223
3,AGCTGGAG,-0.236
4,ATGAAGGG,0.00787
5,GACAGTAA,0.111
6,TGAATAAA,0.0668
7,CGTTGGGA,-0.0248
8,ACAACGAA,0.106
9,ACAATTCC,-0.0138
10,ACTGCAAT,-0.00458
11,GCCCAGGC,-0.179
12,CGCCGAAG,0.0368
13,ACCACTGG,-0.0781
14,CGACCACA,-0.0754
15,AGCAGCAG,-0.139
16,ACTCGCGA,0.05
17,GACGCGCC,-0.265
18,AACATAAT,0.27
19,GTGGTATA,0.0941
20,CAAAATGA,-0.00019
21,ATTATGGC,0.057
22,ACGAGCAA,-0.114

row,Sequence,PBM E-score
1,CCCCCTGA,-0.336
2,CCTTATCC,-0.177
3,AGGGGGCA,-0.32
4,ATCTGTTA,0.168
5,AAGAAACT,0.227
6,CGATCCCA,-0.0711
7,ACCATGAG,-0.166
8,AGATCCTC,-0.167
9,CAATTTTC,0.116
10,CTATCGTA,-0.0469
11,CAATGAAC,-0.0358
12,ACACCACG,-0.12
13,AGAGCTGC,-0.155
14,GATAATCC,0.126
15,AGTATAGC,-0.0323
16,ATGCTACA,-0.0501
17,CCTGCACG,-0.21
18,AAGGTAGC,-0.204
19,CGTAAGAA,0.0769
20,CTATTGAC,0.0306
21,ATAAGCCA,-0.103
22,CGCCCACA,-0.126

row,Sequence,PBM E-score
1,ACAGGTGG,-0.18
2,AGCGTTCG,-0.087
3,ATAGGGCG,-0.0768
4,TAAAGGAA,0.0683
5,CGTAGACC,-0.239
6,GACCATAA,-0.00944
7,AGTGCGTC,-0.103
8,CGCGTACA,-0.079
9,AACCACGC,-0.133
10,ACAGTTAC,0.108
11,CGGTCGGA,0.211
12,ACAATATC,0.126
13,CTATGGTA,0.0377
14,CCGCCGGA,0.223
15,GATTGTCC,0.0682
16,GCTCACGA,-0.0641
17,ATGCTGTC,-0.166
18,ATGCGTGA,-0.092
19,AACCAAGC,0.023
20,CATTACTC,-0.0016
21,AGGAGCAG,-0.278
22,AAACCATT,0.0591

row,Sequence,PBM E-score
1,GTAATGAA,0.105
2,ATCACCGG,0.0777
3,ATTCCGTA,0.296
4,ATTTGGTG,-0.0427
5,ACCATGTA,0.12
6,GCTTAAAC,0.0611
7,CCGCATAG,-0.113
8,CTCGCCAA,0.0328
9,GAGAACGC,-0.0454
10,CCTGAGTC,-0.119
11,ATGTGCCC,-0.159
12,ACACATGG,-0.146
13,CTAAGGAA,0.0416
14,GTGAGGCA,0.0696
15,CCCCCTCC,-0.325
16,CTGCTCGA,-0.271
17,AAACTCGA,-0.0156
18,AGGTCCAG,-0.0827
19,CAGAAGAC,-0.17
20,CGCGTGCC,-0.0161
